Reference: PubChem BioAssay AID504706 (National Center for Advancing Translational Sciences (NCATS), 2011)
The campaign covered roughly 320,000 compounds. About 200 (0.062%) were called active. The inconclusive results got no clear call from the source; some entries with a clear call stand among them for comparison. The call rests on the fitted dose curve; in most records, active means well fitted activation curve with a large enough effect; inconclusive means small, poorly fitted or top-dose-only effect; inactive means no such curve, though single readings can be large or run the other way. Potencies of inconclusive entries are left out as doubtful fits.

Assay: qHTS assay for re-activators of p53 using a Luc reporter; further: nearly all actives have a fitted effect of over 45% in size; on activity change, positive = activation: % of control where 0% means no effect
Conditions: H1299 p53-A138V BP100-luciferase reporter, luminescence, 24 h; series mostly up to 92.2 µM; activity change, positive = activation: at the top concentration
Outline: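 H1299 (p53-null), stable ts p53-A138V + BP100-Luc; 1000 cells/well, Opti-MEM/10% FBS; cpd 4 pt, 1:5; 24 h, 37 deg C, 5% CO2; detection reagent 10 min RT; luminescence.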
Potency means the concentration at half of the fitted maximal effect; tags describe the fitted curve by direction and shape.

Row | SMILES | Potency | activity change, positive = activation
1 | CC(=O)c1c(C)[nH]c(C(=O)OCC(=O)NCc2cccs2)c1C | inconclusive [activator, full curve, poor fit] | –
2 | Clc1ccccc1Nc1c2c(nc3ncnn13)CCC2 | – | inactive: 5.24%
3 | Cc1cc(C)n2nc(C)c(Br)c2n1 | – | inactive: -1.05%
4 | Cc1ccc(/C(N)=N/OC(=O)c2cccc(F)c2)cc1 | inconclusive [activator, partial curve, poor fit] | –
5 | O=C(/C=C/c1ccccc1Cl)NCc1cccs1 | inconclusive [activator, full curve, poor fit] | –
6 | Cc1ccc(C(=O)CC(=O)c2cc(Cl)ccc2O)cc1 | inconclusive [activator, partial curve, poor fit] | –
7 | Cc1[nH]n(-c2ccccc2)c(=O)c1N=Nc1nccs1 | inconclusive [activator, full curve] | –
8 | O=C1c2ccccc2OC2(C=Cc3ccccc3O2)N1Cc1ccccc1 (stereo unspecified) | – | inactive: 3.81%
9 | CC(=O)c1ccc(NC(=O)C(C)n2nc(-c3ccccc3)c3cc(Cl)ccc32)cc1 (stereo unspecified) | – | inactive: -2.05%
10 | CCn1ncc(C(=O)Nc2cccc(Cl)c2)c1C | inconclusive [activator, partial curve, poor fit] | –
11 | CCOC(=O)c1cc(C#N)c(N2CCCC2)nc1-c1ccccc1 | – | inactive: 12.5%
12 | Clc1ccc(CSc2nnc(-c3c[nH]c4ccccc34)o2)cc1 | – | inactive: 8.64%
13 | Cc1ccccc1NC(=O)OCc1ccccc1 | inconclusive [activator, partial curve, poor fit] | –
14 | CN(C)CCCN(Cc1cc2cc3c(cc2[nH]c1=O)OCO3)C(=S)Nc1cccc(Cl)c1 | inconclusive [activator, single point] | –
15 | Cc1occc1C(=O)Nc1ccc2c(c1)CCC2 | inconclusive [activator, full curve, poor fit] | –
16 | Cc1cccc(N2CCN(C(=O)c3cc(COc4ccc(F)c(F)c4)on3)CC2)n1 | inconclusive [activator, partial curve, poor fit] | –
17 | CC(=O)CSc1nc2ccccc2s1 | – | inactive: 24.3%
18 | CCOc1ccc(-c2cnc3ccccc3n2)cc1 | – | inactive: -7.01%
19 | O=C(Nc1nccs1)C1Cc2ccccc2CN1S(=O)(=O)c1ccc(F)cc1 (stereo unspecified) | inconclusive [activator, full curve, poor fit] | –
20 | COc1ccc(NCc2nc3ccccc3n2CCOc2ccccc2)cc1 | inconclusive [activator, partial curve, poor fit] | –
21 | CC(NC(=O)C1CCC1)c1ccccc1 (stereo unspecified) | inconclusive [activator, partial curve] | –
22 | CCCn1c(N)c(C(=O)CSc2nc(C3CC3)n(-c3ccccc3)n2)c(=O)[nH]c1=O | – | inactive: 1.05%
23 | CCCc1cc(=O)[nH]c(SCC(=O)c2cc(C)n(C)c2C)n1 | – | inactive: -3.1%
24 | Cc1cccc(C(=O)OCC(=O)N2CCCCCC2)c1C | inconclusive [activator, partial curve, poor fit] | –

Row | SMILES | Potency | activity change, positive = activation
25 | O=C(CS(=O)CC(=O)N(CC(=O)NC1CCCC1)c1ccc2c(c1)OCCO2)Nc1ccc(F)cc1 (stereo unspecified) | – | inactive: -4.49%
26 | O=C(COc1cccnc1[N+](=O)[O-])N1CCC(Cc2ccccc2)CC1 | – | inactive: -7.6%
27 | CC(C)(C)C1CCc2c(sc(NC(=O)C3CCCO3)c2C(N)=O)C1 (stereo unspecified) | – | inactive: 3.71%
28 | O=C(Nc1nc2ccc(Cl)cc2s1)c1ccc(Br)o1 | inconclusive [activator, partial curve, poor fit] | –
29 | Cc1ccc(NC(=O)c2ccc3c(c2)C(=O)N(c2cc(C)ccc2C)C3=O)nc1 | inconclusive [activator, single point] | –
30 | CC1(C)N=C(c2ccc(Cl)cc2Cl)C(=O)N1 | inconclusive [activator, single point] | –
31 | O=C(Nc1nc2ccc([N+](=O)[O-])cc2s1)c1ccco1 | inconclusive [activator, single point] | –
32 | Cc1ccc(C)n1-c1cccc(NC(=O)c2ccccc2)c1 | inconclusive [activator, partial curve, poor fit] | –
33 | Cc1ccc(C)c(C(=O)C(C)OC(=O)c2cccn2C)c1 (stereo unspecified) | – | inactive: -4.61%
34 | COCCCC1CCN(C(=O)C2CCC(=O)N(CCc3ccccc3)C2)CC1 (stereo unspecified) | inconclusive [activator, partial curve, poor fit] | –
35 | CCN(CC)Cc1ccc(NC(=O)c2sc3cc(Cl)ccc3c2Cl)cc1 | – | inactive: 0.948%
36 | O=C(C=C1CCN(c2ncc(C(F)(F)F)cc2Cl)CC1)NNC(=O)Nc1ccccc1 | inconclusive [activator, partial curve, poor fit] | –
37 | O=C(Nc1cnc2ccccn2c1=O)c1ccc(F)cc1 | inconclusive [activator, full curve, poor fit] | –
38 | CCC(=O)Nc1ccc(Cl)c(NC(=S)NC(=O)c2cc3ccccc3o2)c1 | inconclusive [activator, partial curve, poor fit] | –
39 | O=C(COc1ccccc1C(=O)c1cnn(-c2ccccc2)c1)Nc1ccc2ccccc2c1 | inconclusive [activator, full curve, poor fit] | –
40 | CC(C)Oc1ccc(C(=O)Nc2ccc(C(F)(F)F)n(C)c2=O)cc1 | inconclusive [activator, partial curve, poor fit] | –
41 | CN1CCN(C2CCCCC2NS(=O)(=O)c2ccccc2)CC1 (stereo unspecified) | – | inactive: 10.3%
42 | CC1CCc2c(sc3nn[nH]c(=O)c23)C1 (stereo unspecified) | – | inactive: 18.7%
43 | O=C(CCSc1nccn1Cc1ccccc1)N1CCOCC1 | inconclusive [activator, full curve, poor fit] | –
44 | Cc1ccccc1OCCSc1nc2ccccc2n1CCC(=O)O | inconclusive [activator, full curve] | –
45 | Nc1cc[n+](CC(=O)c2ccc3c(c2)OCCO3)cc1 | – | inactive: -9.79%
46 | O=C(NNC(=O)c1cccnc1SCc1cccc([N+](=O)[O-])c1)c1ccccn1 | inconclusive [activator, partial curve, poor fit] | –
47 | COc1cccc(/C=N/NC(=O)c2ccoc2C)c1O | inconclusive [activator, full curve, poor fit] | –
48 | Cc1ccc(O)c(N=CC2=C(O)c3ccccc3C2=O)c1 | inconclusive [activator, partial curve, poor fit] | –

Row | SMILES | Potency | activity change, positive = activation
49 | NC(=O)c1c(NC(=O)c2ccccc2)sc2c1CCc1ccccc1-2 | inconclusive [activator, partial curve, poor fit] | –
50 | COc1ccccc1C(=O)Nc1ccc2c(c1)nc(CCNC(C)=O)n2C | inconclusive [activator, partial curve, poor fit] | –
51 | O=C(Nc1ccc(NC(=O)C2CC2)nc1)c1ccccn1 | inconclusive [activator, partial curve, poor fit] | –
52 | CN(C)C(CNC(=O)c1cc2ccccc2oc1=O)c1ccccc1 (stereo unspecified) | inconclusive [activator, partial curve, poor fit] | –
53 | Cc1ccc(C(C)C)cc1OCCn1cncn1 | inconclusive [activator, single point] | –
54 | CCCCN(CC)CCNC(=O)c1cc2c(=O)[nH]c3ccc(C)cc3c2s1 | – | inactive: 2.25%
55 | c1ccc2nc3c(nc2c1)OCC1CCCCN31 (stereo unspecified) | inconclusive [activator, partial curve, poor fit] | –
56 | CCOC(=O)c1cnc(-n2nc(C)cc2C)nc1Nc1ccc(O)cc1 | – | inactive: 0.0325%
57 | Cc1ccc(-c2nc3ccccc3n3nnnc23)cc1 | inconclusive [activator, full curve, poor fit] | –
58 | O=C1NC(=S)S/C1=C\c1coc2ccc(O)cc2c1=O | – | inactive: 19.1%
59 | O=C(O)Cn1nc(-c2ccccc2)cc1-c1ccccc1 | inconclusive [activator, single point] | –
60 | CC(C)(C)c1[nH]nc2c1C(Cc1ccccc1)C(C#N)=C(N)O2 (stereo unspecified) | inconclusive [activator, single point] | –
61 | CC(C(=O)N1CCCCC1)N1CCN(S(=O)(=O)c2ccc(Cl)cc2)CC1 (stereo unspecified) | inconclusive [activator, single point] | –
62 | O=C(COC(=O)c1ccc([N+](=O)[O-])o1)Nc1cccc(S(=O)(=O)N2CCCCC2)c1 | – | inactive: 0.117%
63 | O=c1c2ccccc2nnn1CSc1nnc(Nc2ccccc2)s1 | inconclusive [activator, single point] | –
64 | O=C(Nc1nnc(-c2cccs2)o1)c1cc(-c2ccccc2)nc2ccccc12 | inconclusive [activator, single point] | –
65 | CCOCCCNC(=O)c1[nH]c(C)c(C(C)=O)c1C | inconclusive [activator, single point] | –
66 | COc1ccc2[nH]c(=O)c(CN(CC3CCCO3)C(=O)Nc3ccc(F)cc3)cc2c1 (stereo unspecified) | – | inactive: -23.5%
67 | CC(C)COc1ccc(-c2nnc(-c3ccncc3)o2)cc1 | inconclusive [activator, partial curve, poor fit] | –
68 | O=C(Nc1cccc(NC(=O)c2cncc(Br)c2)c1)c1cncc(Br)c1 | – | inactive: 9.11%
69 | c1ccc(CSc2n[nH]c(-c3ccco3)n2)cc1 | inconclusive [activator, partial curve, poor fit] | –
70 | COc1ccc(C2C(C#N)=C(N)Oc3n[nH]c(-c4ccccn4)c32)c(OC)c1OC (stereo unspecified) | inconclusive [activator, single point] | –
71 | O=C(NCC1COc2ccccc2O1)Nc1ccccc1F (stereo unspecified) | inconclusive [activator, single point] | –
